# Screen size: about 220,000 compounds; about 5,700 (2.6%) were called active. This list was built around the results that the source calls inconclusive (neither active nor inactive); the mix of calls is not that of the screen. Calls follow the shape of the dose curve; as a rule, active = well fitted inhibition curve with a large enough effect; inconclusive = small, poorly fitted or top-dose-only effect; inactive = no such curve, though single readings can be large or run the other way. Where the call is inconclusive, the potency comes from a doubtful curve fit.
# Molecular target: Lysine-specific demethylase 5B (Homo sapiens) (UniProt Q9UGL1)
# Assay: Primary screen for KDM5B Histone Demethylases FDH-coupled qHTS; also: nearly all actives have a fitted effect of over 70% in size; as to activity change, negative = inhibition: 0% is about no effect
# Conditions: FDH-coupled NADH fluorescence (FDH is formaldehyde dehydrogenase); activity change, negative = inhibition: at 57.7 µM (top of the series) unless noted
# Summary of the method: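 Measured: NADH fluorescence change, 30 min, RT. System: KDM5BΔAP 200 nM final, H3K4me3 peptide, α-KG, Fe(II), ascorbate, NAD⁺ plus FDH, pH 7.5 HEPES. Compounds: titrated, 10 min pre-incubation with enzyme.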
# Potency is read from the fitted curve at half-maximal effect; tags tell the direction and shape of the fitted curve.
# Chain of UniProt Q9UGL1 (Q9UGL1 whole entry, looked up): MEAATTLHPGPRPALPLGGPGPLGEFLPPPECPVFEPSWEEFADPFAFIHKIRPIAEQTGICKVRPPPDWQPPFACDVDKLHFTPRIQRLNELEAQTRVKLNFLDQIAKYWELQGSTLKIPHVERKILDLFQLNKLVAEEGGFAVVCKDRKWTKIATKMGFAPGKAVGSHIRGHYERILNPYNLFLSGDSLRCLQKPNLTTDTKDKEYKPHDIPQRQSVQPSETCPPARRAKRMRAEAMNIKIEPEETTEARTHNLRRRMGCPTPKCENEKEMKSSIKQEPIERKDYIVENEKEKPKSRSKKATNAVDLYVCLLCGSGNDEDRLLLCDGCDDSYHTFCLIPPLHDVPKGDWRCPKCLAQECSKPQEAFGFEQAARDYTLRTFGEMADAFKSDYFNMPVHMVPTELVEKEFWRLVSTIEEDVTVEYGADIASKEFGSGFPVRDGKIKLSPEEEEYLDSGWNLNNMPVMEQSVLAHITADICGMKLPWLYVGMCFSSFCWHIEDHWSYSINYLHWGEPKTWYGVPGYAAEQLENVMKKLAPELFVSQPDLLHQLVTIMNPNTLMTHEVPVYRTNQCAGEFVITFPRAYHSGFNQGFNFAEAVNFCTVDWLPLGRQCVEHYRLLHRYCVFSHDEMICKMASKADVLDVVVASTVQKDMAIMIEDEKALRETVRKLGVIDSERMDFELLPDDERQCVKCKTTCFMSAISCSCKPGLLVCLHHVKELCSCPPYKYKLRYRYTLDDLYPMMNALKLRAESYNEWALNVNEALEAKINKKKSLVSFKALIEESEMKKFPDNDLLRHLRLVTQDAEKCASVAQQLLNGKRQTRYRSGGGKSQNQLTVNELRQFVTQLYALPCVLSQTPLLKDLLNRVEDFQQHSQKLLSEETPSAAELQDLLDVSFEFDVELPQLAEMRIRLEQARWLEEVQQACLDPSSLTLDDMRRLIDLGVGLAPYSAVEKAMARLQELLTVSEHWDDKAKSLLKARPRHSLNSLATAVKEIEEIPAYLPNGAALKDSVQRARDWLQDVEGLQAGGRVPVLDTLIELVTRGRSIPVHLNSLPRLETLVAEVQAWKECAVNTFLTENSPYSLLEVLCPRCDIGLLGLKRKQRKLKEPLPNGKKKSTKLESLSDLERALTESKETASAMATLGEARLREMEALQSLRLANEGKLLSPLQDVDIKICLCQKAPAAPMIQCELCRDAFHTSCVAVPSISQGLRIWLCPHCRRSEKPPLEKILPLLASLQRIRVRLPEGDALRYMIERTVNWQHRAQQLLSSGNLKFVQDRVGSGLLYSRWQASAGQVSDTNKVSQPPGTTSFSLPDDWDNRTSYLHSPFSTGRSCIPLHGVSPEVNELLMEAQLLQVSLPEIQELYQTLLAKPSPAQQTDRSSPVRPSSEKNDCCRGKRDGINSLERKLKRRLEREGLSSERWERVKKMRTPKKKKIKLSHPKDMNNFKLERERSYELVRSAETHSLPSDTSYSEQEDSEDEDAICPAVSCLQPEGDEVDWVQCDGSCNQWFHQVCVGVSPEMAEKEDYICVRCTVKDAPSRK
Compound,Potency,"activity change, negative = inhibition"
COc1ccc2oc(C(=O)OC/C(O)=C(\C#N)c3nc4ccccc4[nH]3)c(C)c2c1,"inconclusive: 39.8 µM [inhibitor, single point]",
Cc1nsc(NC(=O)N2CCC(C(C)O)CC2)n1 (centres undefined),,inactive: 31.2%
O=c1c2cccnc2n(Cc2ccccc2F)c(=O)n1Cc1ccc(F)cc1,"inconclusive: 35.5 µM [inhibitor, partial curve, poor fit]",
Brc1ccc(CNc2n[nH]c(-c3cccs3)n2)cc1,"inconclusive: 2.82 µM [inhibitor, full curve, poor fit]",
O=C(NCc1cc2n(n1)CCNC2)C1CCCN(c2ccccn2)C1 (centres undefined),active: 31.6 µM,
CCOc1ccc(CC(=O)N2CCCN(c3cc(-c4ccc(F)cc4)[nH]n3)CC2)cc1OCC,"inconclusive: 17.8 µM [inhibitor, partial curve]",
CC(C)(O)CCc1cccc(C(=O)N2CCN(CC3CCCC3)CC2)c1,"inconclusive: 20 µM [inhibitor, single point]",
Cc1ccc(CN2CCSc3ccc(C(=O)N4CCN(c5ccc(Cl)cc5)CC4)cc32)cc1,"inconclusive: 25.1 µM [inhibitor, partial curve, poor fit]",
CCNC(=O)N1CCC(Cc2ncc(C)n2C2CC2)C1 (centres undefined),,inactive: 23.1%
CCN1CCN(c2oc(/C=C/c3ccc(OC)c(OC)c3)nc2C#N)CC1,"inconclusive: 28.2 µM [inhibitor, partial curve, poor fit]",
O=c1cc(CN2CCN(Cc3ccccc3)CC2)c2cc(O)c(-c3ccccc3)cc2o1,inactive,
O=S(=O)(NCCO)c1ccc(-c2ccc(S(=O)(=O)NCCO)cc2)cc1,,inactive: 14.6%
COc1cc2c(cc1OC)CN(Cc1cc3n(n1)CCCNC3)CC2,"inconclusive: 28.2 µM [inhibitor, single point]",
Cc1cc(C)n2ncc(-c3cccc(Br)c3)c2n1,"inconclusive: 28.2 µM [inhibitor, single point]",
COc1ccc(C2C(=O)N(C3CCCCC3)CC(=O)N2CCC2=CCCCC2)cc1 (centres undefined),,inconclusive: -37.8% [inhibitor]
Cc1nc(SCc2nc(-c3cccc(Cl)c3)oc2C)[nH]c(=O)c1C,,inactive: 27.3%
CC(C)C(NC(=O)c1ccc(F)cc1)C(=O)NN (centres undefined),,inactive: 33%
CC(C)C[C@@H]1N[C@H](C(=O)NCCCN2CCCC2=O)Cc2c[nH]c3cccc1c23,"inconclusive: 31.6 µM [inhibitor, single point]",
O=C(COc1ccccc1)N[C@H]1CO[C@H]2[C@@H]1OC[C@H]2OC(=O)Nc1ccccc1,"inconclusive: 39.8 µM [inhibitor, partial curve, poor fit]",
N#Cc1ccc(C(=O)N2CCCN(Cc3ccncc3)C(c3ccccc3)CC(=O)NCC2)cc1 (centres undefined),"inconclusive: 25.1 µM [inhibitor, partial curve, poor fit]",
CNC1CCc2nnc(C)n2CC1 (centres undefined),,inactive: -29.8%
FC(F)(F)c1ccc(/C=N/Nc2ccccc2Cl)cc1,,inactive: 2.43%
c1csc(-c2ccnc3nc(C4CCC4)nn23)c1,,inactive: -2860%

Compound,Potency,"activity change, negative = inhibition"
CCOC(=O)C(C#N)=C1SC(C(=O)OCC)C(C(=O)OCC)S1 (centres undefined),"inconclusive: 15.8 µM [inhibitor, partial curve, poor fit]",
O=C(NCc1ccc(F)cc1)c1cc(C2CC2)nc2onc(C3CCCNC3)c12 (centres undefined),,inactive: -14% [at 115 µM]
COc1ccc2c(c1)C(=O)CC(O)(C(F)F)O2 (centres undefined),"inconclusive: 25.1 µM [inhibitor, partial curve, poor fit]",
CCCCn1c(=O)[nH]c(=O)c2c1nc(-c1ccc(OC(F)F)c(OC)c1)n2C,"inconclusive: 10 µM [inhibitor, partial curve, poor fit]",
CCCNC(=O)c1ccc(OCc2nnc(C(=O)Nc3ccccc3F)s2)cc1,,inactive: 16.6%
CCOc1ccc(N(CC)S(=O)(=O)N2CCCC(C(=O)Nc3ccc(OC)c(OC)c3)C2)cc1 (centres undefined),"inconclusive: 10 µM [inhibitor, partial curve, poor fit]",
COc1ccccc1-c1cc(=O)c2cc(NS(=O)(=O)c3ccc(C)cc3)ccc2o1,"inconclusive: 39.8 µM [inhibitor, single point]",
COc1ccc2c(c1)cc(C(=O)Nc1ccccc1C)n2C,"inconclusive: 17.8 µM [inhibitor, partial curve, poor fit]",
Cc1ccccc1-c1nc(N2CCOCC2)cc2c1CN(CC1CC1)C2=O,active: 35.5 µM,
COc1cc(F)ccc1-c1nccc2c(=O)cc(N3CCN(C)CC3)oc12,"inconclusive: 22.4 µM [inhibitor, partial curve, poor fit]",
O=C(NCC(c1cccs1)N1CCCC1)c1cc2ccccc2oc1=O (centres undefined),"inconclusive: 35.5 µM [inhibitor, partial curve, poor fit]",
Cc1cc(C)nc(Nc2nc(-c3ccccc3)c3ccc(Cl)cc3n2)n1,"inconclusive: 39.8 µM [inhibitor, single point]",
CCCC1CCCN1C(=O)c1coc(COc2ccc3ccc(OC)cc3c2)n1 (centres undefined),"inconclusive: 15.8 µM [inhibitor, single point]",
O=C(Nc1ccccc1Cl)c1cc(S(=O)(=O)N2CCC3(CC2)OCCO3)ccc1F,,inactive: -1.89%
Cc1ccc(C)c(N2CCN(C(=O)C3CCN(c4nnc(-n5c(C)ccc5C)s4)CC3)CC2)c1,"inconclusive: 31.6 µM [inhibitor, single point]",
CCOC(=O)N(C)CC(=O)NC1CCCCC1,,inactive: 13.7%
O=C(O)/C(=C/c1ccccc1)c1cccs1,,inactive: 5.13%
CC(C)CN1C(=O)c2cccn2CC1C(=O)NCc1cccc(C(F)(F)F)c1 (centres undefined),,inactive: -25%
CCOC(=O)c1c(NC(=O)Nc2ccc(C)cc2)sc2c1CCN(C)C2,"inconclusive: 22.4 µM [inhibitor, single point]",
Cc1[nH]c2ccc(Br)cc2c1C(=O)CCl,,inactive: -1.85%
O=c1cc(-c2ccccn2)oc2c(Nc3ccccc3)nccc12,"inconclusive: 22.4 µM [inhibitor, partial curve, poor fit]",
O=C(N1CCCC(c2nn[nH]n2)C1)C1(c2ccccc2)CC1 (centres undefined),"inconclusive: 17.8 µM [inhibitor, single point]",
COCCN1CC(CO)C2(CCN(Cc3ccc(F)c(Cl)c3)CC2)C1 (centres undefined),"inconclusive: 22.4 µM [inhibitor, single point]",

Compound,Potency,"activity change, negative = inhibition"
CN(C)[C@@H]1CN(C(=O)c2cc(F)cc(F)c2)C[C@H]1CO,,inactive: -8.1%
COC(=O)[C@@H]1Cc2ncn(Cc3ccc(OC)cc3)c2CN1S(=O)(=O)c1cccc2c(N(C)C)cccc12,active: 17.8 µM,
COc1ccc2c(c1)c1c(c(=O)n(-c3ccc(C)cc3)c(=O)n1CC(=O)N1CCCC1)n2C,"inconclusive: 14.1 µM [inhibitor, partial curve, poor fit]",
CCOc1ccc(CN(CCOC)Cc2cc(=O)n3cccc(C)c3n2)cc1,"inconclusive: 28.2 µM [inhibitor, single point]",
O=C(NCC1COCCO1)c1ccc(CN2CCC(N3CCCC3)CC2)[nH]c1=O (centres undefined),active: 28.2 µM,
Cc1cc(C)c(CNC(=O)c2nc(Nc3ccccc3)cc3[nH]ccc23)c(=O)[nH]1,active: 15.8 µM,
O=C(Cn1ccn2nc3c(c2c1=O)CCCCC3)Nc1ccc(F)c(F)c1,"inconclusive: 39.8 µM [inhibitor, single point]",
Cc1ccccc1-c1nc2cc(NC(=O)c3cccc(OCCC(C)C)c3)ccc2o1,"inconclusive: 35.5 µM [inhibitor, partial curve, poor fit]",
Cn1cc(-c2cnc(Nc3ccc(F)cc3)c3c2CCO3)cn1,active: 6.31 µM,
CCCCNC(=O)c1nn(-c2ccc(C)cc2)c(=O)c2c1c1ccccc1n2C,"inconclusive: 2.51 µM [inhibitor, partial curve, poor fit]",
Cc1cccc(CNC(=O)c2cccc(NC(=O)N3CCSc4ncccc43)c2)c1,"inconclusive: 35.5 µM [inhibitor, partial curve, poor fit]",
Cc1c(CC(=O)O)c(=O)oc2cc(OCc3ccc(F)cc3Cl)ccc12,"inconclusive: 25.1 µM [inhibitor, partial curve, poor fit]",
CCONC(=O)Cc1ccccc1C,,inactive: 15.4%
COCCNC(=O)c1nc(-c2ccccc2OC)c2cnccn12,active: 31.6 µM,
CCOC(=O)c1cnc2ccc(OC)cc2c1NCCc1ccc(OC)c(OC)c1,"inconclusive: 17.8 µM [inhibitor, partial curve, poor fit]",
COCCN1Cc2nc(-c3cnn(Cc4ccccc4)c3)ccc2OCC1=O,"inconclusive: 25.1 µM [inhibitor, single point]",
COCCN1CC(CO)C2(CCN(Cc3cccc(OC)n3)CC2)C1 (centres undefined),"inconclusive: 28.2 µM [inhibitor, single point]",
Cc1c(OCC(=O)N(C)c2ccccc2)ccc2c3c(c(=O)oc12)CCC3,"inconclusive: 31.6 µM [inhibitor, partial curve, poor fit]",
Cc1nc(SCC(=O)Nc2ccccc2Br)oc1C,"inconclusive: 39.8 µM [inhibitor, single point]",
CC1CCN(S(=O)(=O)c2ccc3c(c2)oc(=O)n3CC(=O)NC(C)c2ccccc2)CC1 (centres undefined),"inconclusive: 14.1 µM [inhibitor, partial curve, poor fit]",
O=C(NCC(F)(F)F)C1CCN(C(=O)c2ccc(Br)cc2)CC1,,inactive: 7.92%
c1cc(CN2CCCCCC2)cc(-c2nc(C3CCOC3)no2)c1 (centres undefined),"inconclusive: 14.1 µM [inhibitor, partial curve]",
COc1ccc(-c2nc(C3CC3)nc3c2CCN(C(=O)c2ccc(C)cc2)CC3)cc1,"inconclusive: 79.4 µM [inhibitor, partial curve, poor fit]",
